Results taken from article PMC4336329 (PLoS ONE, 2015).
In all, about 310,000 compounds went through this assay and about 2,200 (0.71%) showed an effect of 50% or more. The effect is printed as a negative number. This is one part of the list.

target: human ether-à-go-go-related gene (hERG) potassium channel (human, UniProt Q12809); experiment: primary screen, population patch clamp on CHO cells stably expressing hERG
Sequence (Q12809 whole entry, looked up): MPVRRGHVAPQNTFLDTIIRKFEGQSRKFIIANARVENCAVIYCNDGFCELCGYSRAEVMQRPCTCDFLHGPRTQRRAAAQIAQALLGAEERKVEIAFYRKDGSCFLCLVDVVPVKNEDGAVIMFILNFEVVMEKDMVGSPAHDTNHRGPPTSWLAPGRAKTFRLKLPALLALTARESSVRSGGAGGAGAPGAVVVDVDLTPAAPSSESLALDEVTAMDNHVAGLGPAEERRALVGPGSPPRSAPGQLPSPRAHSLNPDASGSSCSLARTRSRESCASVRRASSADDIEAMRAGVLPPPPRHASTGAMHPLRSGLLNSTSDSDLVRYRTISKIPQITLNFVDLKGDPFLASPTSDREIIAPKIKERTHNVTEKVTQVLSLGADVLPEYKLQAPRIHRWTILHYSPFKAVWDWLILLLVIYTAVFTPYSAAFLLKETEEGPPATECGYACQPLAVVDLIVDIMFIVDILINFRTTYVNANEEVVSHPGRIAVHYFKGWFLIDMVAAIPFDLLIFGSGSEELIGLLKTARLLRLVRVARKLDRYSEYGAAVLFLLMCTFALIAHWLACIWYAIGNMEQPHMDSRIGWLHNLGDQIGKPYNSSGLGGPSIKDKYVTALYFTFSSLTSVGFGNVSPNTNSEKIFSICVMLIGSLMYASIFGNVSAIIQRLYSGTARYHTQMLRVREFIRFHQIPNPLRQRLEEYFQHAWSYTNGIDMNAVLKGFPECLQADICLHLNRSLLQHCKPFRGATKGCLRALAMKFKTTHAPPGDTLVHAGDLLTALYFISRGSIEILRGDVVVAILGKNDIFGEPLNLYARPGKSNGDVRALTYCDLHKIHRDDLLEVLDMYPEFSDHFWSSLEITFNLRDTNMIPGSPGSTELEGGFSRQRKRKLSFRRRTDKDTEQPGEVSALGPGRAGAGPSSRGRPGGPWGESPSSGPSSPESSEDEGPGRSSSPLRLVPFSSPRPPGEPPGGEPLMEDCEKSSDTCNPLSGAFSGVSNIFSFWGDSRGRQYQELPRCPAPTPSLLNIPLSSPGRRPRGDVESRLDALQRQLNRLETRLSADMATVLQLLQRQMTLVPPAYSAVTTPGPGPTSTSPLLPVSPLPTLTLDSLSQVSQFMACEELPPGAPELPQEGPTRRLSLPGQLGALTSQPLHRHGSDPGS

SMILES | hERG current change (%, negative = inhibition) at 1uM
CCCCC(=O)Nc1ccc(C(=O)Nc2ccc(S(=O)(=O)N3CCCC3)cc2)cc1 | 13.5%
C/C=N/NC(=O)CCCC(=O)N/N=C/C | 2.51%
O=C(NC1CCCCC1)C1CCC(=O)N(C2CC2)C1 (centres unmarked) | 15.5%
Cc1ccc(NC2CCCN(C(=O)C3CCCC3)C2)cc1C (centres unmarked) | 17.9%
CCn1ccnc1CNC(=O)c1ccc(OC2CCN(C(=O)COC)CC2)cc1 | 16%
CN1CCc2c(sc3c2C(=O)NC(/C=C\c2ccccc2)N3)C1 (centres unmarked) | -6.22%
O=C(/C=C/c1ccc2c(c1)OCCO2)N1CCN(c2ccc(F)cc2)CC1 | 13.8%
CCN(CC(=O)Nc1sc2c(c1C#N)CCCC2)Cc1nc2ccccc2c(=O)[nH]1 | 10.8%
CCCCOC(=O)Nc1nnc(Cc2ccc(Cl)cc2)s1 | 9.6%
O=c1c2cn[nH]c2nc(SCc2ccccc2F)n1-c1ccc(Br)cc1 | 9.14%
COc1ccccc1CNC(=O)CCNS(=O)(=O)c1ccc2[nH]c(=O)oc2c1 | 12.8%
CCCCn1nnnc1SCC(=O)NCc1ccco1 | 8.51%
Fc1ccc2c(c1)C(c1ccc(N3CCOCC3)cc1)=NNC(c1cccs1)=N2 | 6.09%
O=C(Nc1nc(-c2ccco2)c(-c2ccco2)s1)c1cnccn1 | 7.77%
Nc1nc(SCc2nc3scc(-c4cccs4)c3c(=O)[nH]2)n[nH]1 | 18.2%
Nc1[nH]c(N=NC(=O)c2ccccc2)c2ccccc12 | 10.1%
C#Cc1ccc([C@@H]2C=C(C(=O)OCC=C)O[C@H](OCc3ccc(CO)cc3)C2)cc1 | 20.2%
COc1ccc(NC(=O)c2coc3ccccc23)cc1OC | 7.73%
CN(c1ccccc1)S(=O)(=O)c1ccc(C(=O)OCC(=O)NCc2ccco2)cc1 | 7.86%
Cc1c(NC(=S)/C=C2\N(C)c3ccccc3C2(C)C)c(=O)n(-c2ccccc2)n1C | -1.57%
CCN(Cc1ccccc1)S(=O)(=O)c1c(C)n(C)c(=O)n(C)c1=O | 1.45%
C=CCN(c1ccc(C(=O)Nc2ccc3c(c2)n(C)c(=O)n3C)cc1)S(C)(=O)=O | 17.2%

SMILES | hERG current change (%, negative = inhibition) at 1uM
Cc1ccc(S(=O)(=O)N2CCCC2)cc1C(=O)O | 20.5%
CCCOC(=O)c1ccc(NC(=O)C2C3C=CC(O3)C2C(=O)O)cc1 (centres unmarked) | 14.5%
CCn1c(CNc2ccc(C)cc2C)nnc1SCC(=O)N1CCCc2ccccc21 | 8%
Cc1ccc(S(=O)(=O)c2ncccc2N)cc1 | 9.71%
CC(=O)N1CCN(CC(=O)O)CC1 | 5.59%
Cc1cc(C(F)F)n2ncc(C(=O)N3CCC(C(N)=O)CC3)c2n1 | 13.6%
Cc1ccc2c(cnn2C(=O)CCC(=O)NCc2cccc(Br)c2)c1 | 11.1%
Cc1cc(C(=O)CCC(=O)NCc2ccccc2F)c(C)s1 | 15%
COc1cccc(CNC(=O)CSc2nnc3c(n2)[nH]c2ccc(OC)cc23)c1 | 11.6%
COc1ccccc1NC(=O)CSc1nc(O)cc(=O)n1C | 15.3%
Cc1cc(C)n2nnnc2c1C#N | 10.6%
CCOC(=O)c1cccc(NC(=O)c2ccco2)c1 | 7.16%
COC(=O)c1cccnc1NC(=S)NC1CCCCC1 | 7.35%
COC(=O)c1sccc1-c1ccc(C(=O)Nc2ccccc2)o1 | -9%
COc1ccc(C(=O)NC2CCCc3c2cnn3-c2cccc(C)c2C)c(OC)n1 (centres unmarked) | 12.5%
COc1ccc(/C(CC2OC(=O)c3ccccc32)=N\NC(N)=O)cc1 (centres unmarked) | 2.7%
CCOC(=O)N1CCN(S(=O)(=O)N2CCCC(C(=O)NCc3cccc(OC)c3)C2)CC1 (centres unmarked) | 7.2%
Cc1ccccc1/C=N/Nc1ccc(Cl)nn1 | 13.8%
O=[N+]([O-])c1ccc(C2[C@H]3C(c4ccccc4)=NC4(CCCCC4)N23)cc1 (some centres unmarked) | 16.7%
NS(=O)(=O)c1ccc(CCNC(=S)Nc2ccccc2)cc1 | 7.72%
Fc1ccccc1-c1nnc2c3ccccc3nc(N3CCOCC3)n12 | -3.41%
CCOC(=O)C(=CNc1cc(C)ccc1[N+](=O)[O-])C(=O)OCC | -7.24%
